# In paper PMC4279165:
# Protein sequences, listed by entry. Tags and fused reporters are not part of them. Lines headed by an entry give the natural chain unless they say otherwise; changes in a name come on top. Chains listed by the source or under a name are the forms on record and can include a tag or linker.
# UniProt P0A6F5: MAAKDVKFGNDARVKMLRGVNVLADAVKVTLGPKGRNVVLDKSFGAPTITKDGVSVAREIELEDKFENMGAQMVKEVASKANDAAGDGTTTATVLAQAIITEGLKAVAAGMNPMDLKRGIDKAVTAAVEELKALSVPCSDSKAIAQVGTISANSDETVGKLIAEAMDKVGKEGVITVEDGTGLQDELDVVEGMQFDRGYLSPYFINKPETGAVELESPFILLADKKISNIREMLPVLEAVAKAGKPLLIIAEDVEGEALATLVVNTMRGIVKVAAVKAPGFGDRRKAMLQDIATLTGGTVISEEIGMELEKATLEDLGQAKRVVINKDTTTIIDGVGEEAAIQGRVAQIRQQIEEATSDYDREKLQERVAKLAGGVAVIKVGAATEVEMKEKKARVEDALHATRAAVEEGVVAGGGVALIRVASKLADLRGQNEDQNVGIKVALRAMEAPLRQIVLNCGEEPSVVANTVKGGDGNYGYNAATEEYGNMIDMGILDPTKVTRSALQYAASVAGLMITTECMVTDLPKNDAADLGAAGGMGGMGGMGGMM
# frataxin clinical variant FXN-p.Asp122Tyr, conserved C-terminal domain (amino acids 91-210) (Q16595, form named): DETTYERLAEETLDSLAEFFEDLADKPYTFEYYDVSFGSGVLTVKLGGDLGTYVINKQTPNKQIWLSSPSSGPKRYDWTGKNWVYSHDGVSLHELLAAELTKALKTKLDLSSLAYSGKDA
# frataxin clinical variant FXN-p.Ile154Phe, conserved C-terminal domain (amino acids 91-210) (Q16595, form named): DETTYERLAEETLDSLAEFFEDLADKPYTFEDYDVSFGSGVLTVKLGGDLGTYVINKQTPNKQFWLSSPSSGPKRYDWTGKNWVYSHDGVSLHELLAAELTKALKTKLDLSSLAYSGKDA
# Results are given in words; binding and its absence hold for the method and conditions named. Some entries that bind do so weakly or less than the wild type.
# Columns and labels:
# [1] = target: GroEL chaperonin, high-affinity nucleotide-free form, immobilised on NHS-Sepharose Fast Flow beads (UniProt P0A6F5); test: solid phase GroEL partitioning assay (depletion of soluble protein by GroEL beads, UV absorbance Abs 280-Abs 350 nm or SDS-PAGE); GroEL immobilised on Sepharose beads, estimated 2 µM oligomer; 2 µM frataxin in solution; 45 °C; buffer A (50 mM Tris, 50 mM KCl, 5 mM MgCl2, 0.5 mM EDTA, 1 mM DTT, pH 7.5) with 1 M urea; constant mixing; both purified
# [2] = target: GroEL chaperonin, high-affinity nucleotide-free form, immobilised on NHS-Sepharose Fast Flow beads (UniProt P0A6F5); test: condition: only at 25 °C (2 µM frataxin, 2 µM immobilized GroEL oligomer); solid phase GroEL partitioning assay (depletion of soluble protein by GroEL beads, UV absorbance Abs 280-Abs 350 nm or SDS-PAGE); GroEL immobilised on Sepharose beads, estimated 2 µM oligomer; 2 µM frataxin in solution; 25 °C; buffer A (50 mM Tris, 50 mM KCl, 5 mM MgCl2, 0.5 mM EDTA, 1 mM DTT, pH 7.5) with 1 M urea; constant mixing; both purified
# [3] = target: GroEL chaperonin, high-affinity nucleotide-free form, immobilised on NHS-Sepharose Fast Flow beads (UniProt P0A6F5); test: condition: only at 37 °C (2 µM frataxin, 2 µM immobilized GroEL oligomer); solid phase GroEL partitioning assay (depletion of soluble protein by GroEL beads, UV absorbance Abs 280-Abs 350 nm or SDS-PAGE); GroEL immobilised on Sepharose beads, estimated 2 µM oligomer; 2 µM frataxin in solution; 37 °C; buffer A (50 mM Tris, 50 mM KCl, 5 mM MgCl2, 0.5 mM EDTA, 1 mM DTT, pH 7.5) with 1 M urea; constant mixing; both purified
# [4] = target: GroEL chaperonin, high-affinity nucleotide-free form, immobilised on NHS-Sepharose Fast Flow beads (UniProt P0A6F5); test: solid phase GroEL partitioning assay (depletion of soluble protein by GroEL beads, UV absorbance); 2 µM GroEL beads, 2 µM frataxin mutant, 45 °C, 1 M urea, with 1 M TMAO, 60 min; both purified
# [5] = target: GroEL chaperonin, high-affinity nucleotide-free form, immobilised on NHS-Sepharose Fast Flow beads (UniProt P0A6F5); test: solid phase GroEL partitioning assay (depletion of soluble protein by GroEL beads, UV absorbance); 2 µM GroEL beads, 2 µM frataxin mutant, 45 °C, 1 M urea, with 4 M glycerol, 60 min; both purified
Substance,binding [1],binding [2],binding [3],binding [4],binding [5]
"frataxin clinical variant FXN-p.Asp122Tyr, conserved C-terminal domain (amino acids 91-210) (from UniProt Q16595 91-210) (domain or fragment)",binds,no binding,no binding,no binding (condition: with 1 M TMAO),no binding (condition: with 4 M glycerol)
"frataxin clinical variant FXN-p.Ile154Phe, conserved C-terminal domain (amino acids 91-210) (from UniProt Q16595 91-210) (domain or fragment)",binds,no binding,no binding,,
